# Reference: the supplement of paper PMC12217912
# The list shows a part of the results. The full chains were built here from the parent and the listed change. Inactive controls read about 0.05.
# B1: TEV protease; numbered along this chain (parent)
# chain: MGESLFKGPRDYNPISSSICHLTNESDGHTTSLYGIGFGPFIITNKHLFRRNNGTLVVQSLHGVFKVKDTTTLQQHLVDGRDMIIIRMPKDFPPFPQKLKFREPQREERICLVTTNFQTKSMSSMVSDTSCTFPSGDGIFWKHWIQTKDGQCGSPLVSTRDGFIVGIHSASNFTNTNNYFTSVPKNFMELLTNQEAQQWVSGWRLNADSVLWGGHKVFMVKPEEPFQPVKEATQL
# Variants of: B1
# Assay: raw area under fraction-flipped curve 0-4 h after induction (AUC4h, not background-subtracted), DNA-recorder readout of cleavage of the substrate (dimensionless); higher = more cleavage of the substrate by the protease variant
# Conditions: temperature: 34 °C; time window: 0-4 h after rhamnose induction
# Method: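 In vivo DNA recorder in E. coli TOP10(DE3) ΔrhaA at 34 °C. Each TEVp single-site mutant (parent TEVp 0) is paired with a single-site variant of the 7-mer TEVs (canonical ENLYFQ|S). The substrate sits between flexible linkers in a Bxb1-sfGFP-TEVs-SsrA fusion, so cleavage stabilises Bxb1 and speeds flipping of a recombination array, read by NGS. The value is the raw area under the fraction-flipped curve over 0-4 h after rhamnose induction (AUC4h), with ≥20 reads per time point. It is not background-subtracted; inactive controls average about 0.047.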
# 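Further: Bxb1 expression induced with 0.2% (w/v) L-rhamnose at OD600 near 0.5, cultures sampled hourly, flipped fraction per protease–substrate barcode pair counted by paired-end Illumina sequencing.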
Variant,area with substrate ENLAFQS,area with substrate ENLCFQS,area with substrate ENLFFQS,area with substrate ENLHFQS,area with substrate ENLIFQS,area with substrate ENLKFQS,area with substrate ENLDFQS,area with substrate ENLNFQS,area with substrate ENLRFQS,area with substrate ENLGFQS
MGESLAKGPRDYNPISSSICHLTNESDGHTTSLYGIGFGPFIITNKHLFRRNNGTLVVQSLHGVFKVKDTTTLQQHLVDGRDMIIIRMPKDFPPFPQKLKFREPQREERICLVTTNFQTKSMSSMVSDTSCTFPSGDGIFWKHWIQTKDGQCGSPLVSTRDGFIVGIHSASNFTNTNNYFTSVPKNFMELLTNQEAQQWVSGWRLNADSVLWGGHKVFMVKPEEPFQPVKEATQL [F6A],0.0452,0.0698,0.0668,0.0799,0.082,0.082,,,,
MGESLFKGPRDYNPISSSICHLTNESDGHTTSLYGIGFGPFIITNKHLFRRNNGTLVVQSLHGVFKVKDTTTLQQHLVDGRDMIIIRMPKDFPPFPQKLKFREPQREERICLVTTNFQTKSMSSMVSDTSCTFPSGDGIFWKHWIQTKDGQCGSPLVSTRDGFIVGIHSASNFTNTNRYFTSVPKNFMELLTNQEAQQWVSGWRLNADSVLWGGHKVFMVKPEEPFQPVKEATQL [N178R],0.0695,,,,0.099,0.0786,0.0623,0.0689,0.0702,
MGESLFKGPRDYNPISSSICHLTNESDGHTTSLYGIGFGPFIITNKHLFRRNNGTLVVQSLHGVFKVKDTTTLQQHLVDGRDMIIIRMPKDFPPFPQKLKFREPQREERICLVTTNFQTKSMSSMVSDTSCTFPSGDGIFWKHWIQTKDGQCGSPLVSTRDGFIVGIHSASNFTNTNNYFTSVPKNFMELLTNQEAQQSVSGWRLNADSVLWGGHKVFMVKPEEPFQPVKEATQL [W199S],0.0698,,0.077,0.0646,,0.0742,0.0654,0.0575,,0.0652
MGESLFKGPRDYNPISSSICHLTNESDGHTTSLYGIGFGPFIITNKHLFRRNNGTLVVQSLHGVFKVKDTTTLQQHLVDGRDMIIIRMPKDFPPFPQKLKFREPQREERICLVTTNFQTKSMSSMVSDTSCTFPSGQGIFWKHWIQTKDGQCGSPLVSTRDGFIVGIHSASNFTNTNNYFTSVPKNFMELLTNQEAQQWVSGWRLNADSVLWGGHKVFMVKPEEPFQPVKEATQL [D137Q],0.0648,0.07,0.0911,0.0827,,,0.0552,0.072,0.0613,
MGESLFKGPRDYNPISSSICHLTNESDGHTTSLYGIGFGPFIITNKHLFRRNNGTLVVQSLHGVFKVKDTTTLQQHLVDGRDMIIIRMPKDFPPFPQKLKFREPQREEKICLVTTNFQTKSMSSMVSDTSCTFPSGDGIFWKHWIQTKDGQCGSPLVSTRDGFIVGIHSASNFTNTNNYFTSVPKNFMELLTNQEAQQWVSGWRLNADSVLWGGHKVFMVKPEEPFQPVKEATQL [R109K],0.0326,,0.0704,,0.0789,,0.0748,,,
MGESLFKGPRDRNPISSSICHLTNESDGHTTSLYGIGFGPFIITNKHLFRRNNGTLVVQSLHGVFKVKDTTTLQQHLVDGRDMIIIRMPKDFPPFPQKLKFREPQREERICLVTTNFQTKSMSSMVSDTSCTFPSGDGIFWKHWIQTKDGQCGSPLVSTRDGFIVGIHSASNFTNTNNYFTSVPKNFMELLTNQEAQQWVSGWRLNADSVLWGGHKVFMVKPEEPFQPVKEATQL [Y12R],0.0574,,0.095,0.0636,0.0807,0.0807,0.0597,0.0439,0.0798,
MGESHFKGPRDYNPISSSICHLTNESDGHTTSLYGIGFGPFIITNKHLFRRNNGTLVVQSLHGVFKVKDTTTLQQHLVDGRDMIIIRMPKDFPPFPQKLKFREPQREERICLVTTNFQTKSMSSMVSDTSCTFPSGDGIFWKHWIQTKDGQCGSPLVSTRDGFIVGIHSASNFTNTNNYFTSVPKNFMELLTNQEAQQWVSGWRLNADSVLWGGHKVFMVKPEEPFQPVKEATQL [L5H],0.0757,0.0918,0.117,,,0.0721,0.0517,0.0662,,
MGESLFKGPRDYNPISSSICHLTNESDGHTTSLYGIGFGPFIITNKHLFRRNNGTLVVQSLHGVFKVKDTTTLQQHLVDGRDMIIIRMPKDFPPFPQKLKFREPQREERICLVTTNFQTKSMSSMVSDTSCTFPSGDMIFWKHWIQTKDGQCGSPLVSTRDGFIVGIHSASNFTNTNNYFTSVPKNFMELLTNQEAQQWVSGWRLNADSVLWGGHKVFMVKPEEPFQPVKEATQL [G138M],0.0734,0.0601,0.0716,,0.0751,0.0461,,,,
MGESLFKGPRDYNPISSSICHLTNESDGHTTSLYGIGFGPFIITNKHLFRRNNGTLVVQSLHGVFKVKDTTTLQQHLVDGRDMIIIRMPKDFPPFPQKLKFREPQREERICLVTTNFQTKFMSSMVSDTSCTFPSGDGIFWKHWIQTKDGQCGSPLVSTRDGFIVGIHSASNFTNTNNYFTSVPKNFMELLTNQEAQQWVSGWRLNADSVLWGGHKVFMVKPEEPFQPVKEATQL [S121F],0.0586,,0.0563,,,,0.0659,0.063,,
MGESLFKGPRDYNPISSSICHLTNESDGHTTSLYGIGFGPFIITNKHLFRRNNGTLVVQSLHGVFKVKDTTTLQQHLVDGRDMIIIRMPKDFPPFPQKLKFREPQREERICLVTTNFQTKSMSSMVSDTSCTFPSGDGIFWKHWIQTKDGQCGSPLVSTRDGFIVGIHSASNFTNTNNYFTSVPKNFMELLTNQEAQQWVSGWRLNADSVLWGGHKVVMVKPEEPFQPVKEATQL [F218V],0.0506,,0.062,0.0605,0.0465,0.0802,0.0575,0.061,0.0447,0.0671

# Same assay, conditions: temperature: 34 °C; time window: 0-4 h after rhamnose induction
Variant,area with substrate ENLMFQS,area with substrate ENLPFQS,area with substrate ENLSFQS,area with substrate ENLEFQS,area with substrate ENLLFQS,area with substrate ENLQFQS,area with substrate ENLWFQS,area with substrate ENLVFQS
MGESLFKGPRDYNPISSSICHLTNESDGHTTSLYGIGFGPFIITNKHLFRRNNGTLVVQSLHGVFKVKDTTTLQQHLVDGRDMIIIRMPKDFPPFPQKLKFREPQREERICLVTTNFQTKSMSSMVSDTSCTFPSGDGIFWKHWIQTKDGQCGSPLVSTRDGFIVGIHSASNFTNTNNYFTSVPKNFMELLTNQEAQQSVSGWRLNADSVLWGGHKVFMVKPEEPFQPVKEATQL [W199S],0.0567,0.0586,0.0605,,,,,
MGESLFKGPRDYNPISSSICHLTNESDGHTTSLYGIGFGPFIITNKHLFRRNNGTLVVQSLHGVFKVKDTTTLQQHLVDGRDMIIIRMPKDFPPFPQKLKFREPQREERICLVTTNFQTKSMSSMVSDTSCTFPSGQGIFWKHWIQTKDGQCGSPLVSTRDGFIVGIHSASNFTNTNNYFTSVPKNFMELLTNQEAQQWVSGWRLNADSVLWGGHKVFMVKPEEPFQPVKEATQL [D137Q],,0.0567,,0.0963,0.0851,0.0826,0.0649,
MGESLFKGPRDYNPISSSICHLTNESDGHTTSLYGIGFGPFIITNKHLFRRNNGTLVVQSLHGVFKVKDTTTLQQHLVDGRDMIIIRMPKDFPPFPQKLKFREPQREEKICLVTTNFQTKSMSSMVSDTSCTFPSGDGIFWKHWIQTKDGQCGSPLVSTRDGFIVGIHSASNFTNTNNYFTSVPKNFMELLTNQEAQQWVSGWRLNADSVLWGGHKVFMVKPEEPFQPVKEATQL [R109K],,0.0522,0.0656,,,,0.0598,
MGESLFKGPRDRNPISSSICHLTNESDGHTTSLYGIGFGPFIITNKHLFRRNNGTLVVQSLHGVFKVKDTTTLQQHLVDGRDMIIIRMPKDFPPFPQKLKFREPQREERICLVTTNFQTKSMSSMVSDTSCTFPSGDGIFWKHWIQTKDGQCGSPLVSTRDGFIVGIHSASNFTNTNNYFTSVPKNFMELLTNQEAQQWVSGWRLNADSVLWGGHKVFMVKPEEPFQPVKEATQL [Y12R],,0.0637,0.0771,0.0546,0.0767,0.0573,,0.081
MGESLFKGPRDYNPISSSICHLTNESDGHTTSLYGIGFGPFIITNKHLFRRNNGTLVVQSLHGVFKVKDTTTLQQHLVDGRDMIIIRMPKDFPPFPQKLKFREPQREERICLVTTNFQTKSMSSMVSDTSCTFPSGDMIFWKHWIQTKDGQCGSPLVSTRDGFIVGIHSASNFTNTNNYFTSVPKNFMELLTNQEAQQWVSGWRLNADSVLWGGHKVFMVKPEEPFQPVKEATQL [G138M],,,0.0663,,,,,0.0818
MGESLFKGPRDYNPISSSICHLTNESDGHTTSLYGIGFGPFIITNKHLFRRNNGTLVVQSLHGVFKVKDTTTLQQHLVDGRDMIIIRMPKDFPPFPQKLKFREPQREERICLVTTNFQTKFMSSMVSDTSCTFPSGDGIFWKHWIQTKDGQCGSPLVSTRDGFIVGIHSASNFTNTNNYFTSVPKNFMELLTNQEAQQWVSGWRLNADSVLWGGHKVFMVKPEEPFQPVKEATQL [S121F],,,0.0959,,0.0786,0.0621,,
MGESLFKGPRDYNPISSSICHLTNESDGHTTSLYGIGFGPFIITNKHLFRRNNGTLVVQSLHGVFKVKDTTTLQQHLVDGRDMIIIRMPKDFPPFPQKLKFREPQREERICLVTTNFQTKSMSSMVSDTSCTFPSGDGIFWKHWIQTKDGQCGSPLVSTRDGFIVGIHSASNFTNTNNYFTSVPKNFMELLTNQEAQQWVSGWRLNADSVLWGGHKVVMVKPEEPFQPVKEATQL [F218V],,0.0477,0.0593,,0.0615,0.0707,0.0613,
